# Laboratory results: paper PMC12136788
# The list shows a part of the results.
# B1: 56284568_56285466_1299_CDS_ENSG00000011143_ENST00000393119|human|control|control (ssRNA)
# RNA: GGGAGUUCUACAGUCCGACGAUCGGUGUGUGAGCCUGGAGUGGCAGGCAGCACCACAGCCCCAUAGCCUUCCACACGGUACCUCUGCCAGAAGUCCAGCGAGAGGACCUCACAGUAGAGCACAGGCCACUCCGGGAGUGCAUCCAACAGAGGAUUGAGCAUCA
# B2: chr3:88113163:88113164:+_ENSMUSG00000001416_ENSMUST00000001452|mus_mus|FALSE|FALSE (ssRNA)
# RNA: GGGAGUUCUACAGUCCGACGAUCCAGUGCAAUGUUGCAUGCCAAGGAGGACCACCGACUGAUGACUUUUGUAGUAAUAGAGCUAUUGAUGAUGCUCAACAUCAUCUCACGGUUAUUGACAUCAACAGGAGUACUGAUUUUCUUCAACAGAGGAUUGAGCAUCA
# B3: chr5:32403282:32403283:-_ENSG00000056097_ENST00000265069|hu_mus|FALSE|FALSE (ssRNA)
# RNA: GGGAGUUCUACAGUCCGACGAUCAGAUGUUUUCUUGGCAGCCAUAUUGGUAGGUAUCGCUGACACUUUAGUGUUGGAUGUACUAUUAAGAGACGAGUUUCCUGUAGUUGAAAGACCUUUCACUGAAGAAGUUGCAAUUGAUGACAACAGAGGAUUGAGCAUCA
# B4: chr6:86333760:86333761:-_ENSG00000135316_ENST00000355238|hu_mus|hu_hu_hu_mus_True|18_98 (ssRNA)
# RNA: GGGAGUUCUACAGUCCGACGAUCUUCCUCAAGAAUCUGUUCCUUGGUUUUACUCUUAGGAAUCGAGCCCACAAAAAGCCUAUUGUUGGCAACUGAGAUGCAGACACCAAUGUGCUUUCCAGAACGAAUUUCAUGAUUAUUAUACAACAGAGGAUUGAGCAUCA
# B5: chr16:94690093:94690094:+_ENSMUSG00000040785_ENSMUST00000117648|mus_hu|mus_mus_mus_hu_True|8_78 (ssRNA)
# RNA: GGGAGUUCUACAGUCCGACGAUCGGGCUGGGAUGACGGACACACAGCCUCGAUUCCGGUAAAAAAAAGUCUUAGUCGAUACUAAUUAAAAAGUGUUAAUGAUUUUUGAAAAUCAGAUUACAUCUAUUUGAAUCAUAAAGCAAACAACAGAGGAUUGAGCAUCA
# B6: chr4:46174136:46174137:+_ENSMUSG00000028330_ENSMUST00000030014|mus_mus|FALSE|FALSE (ssRNA)
# RNA: GGGAGUUCUACAGUCCGACGAUCAUCUUCCCAGCUCCAACGGAAUUGAAAAUUACUUAGAUGAUGAGAAAACCAAUUAAUAAACCUGUCAACACACGUGGUACUCAUCGUGUCCAGACGCAUGUACAGCAUCUCAGUCGCCUGCAACAGAGGAUUGAGCAUCA
# B7: chr10:128108517:128108518:-_ENSMUSG00000049858_ENSMUST00000054764|mus_mus|FALSE|FALSE (ssRNA)
# RNA: GGGAGUUCUACAGUCCGACGAUCAAACUUAUGCAAAUCAUCCAAGGACAGAGACAGUGACUGACCUCCAGGUGCCCCUACUACAUGUAAGCGAUAGGUGUGUGGGUCCAGGUUAGGUACAGGCAGAUGGUUACGGGUGAAGAACAACAGAGGAUUGAGCAUCA
# B8: chr3:141904083:141904084:-_ENSMUSG00000028273_ENSMUST00000029941|mus_mus|FALSE|FALSE (ssRNA)
# RNA: GGGAGUUCUACAGUCCGACGAUCGCUUCCAUUUUGCAAUGUGGUAUCACCCUUGCUGUUCAUUGAUCUCCCAGUUCAUUACUAUCUGCAUAUAAUAUAAAUUCACUAGACCAUAGAUUAGCAGCUUUCAGGACAGAUGCCUUGCAACAGAGGAUUGAGCAUCA
# B9: chr2:235962676:235962677:+_ENSG00000130147_ENST00000392011|hu_hu|motif|central (ssRNA)
# RNA: GGGAGUUCUACAGUCCGACGAUCCCCCCAUUCGUUAAAAAAGUGAUUUUAAAUUUAAAUUUAUACUUAACAAAUAGAAAGCGGUGUGAUUGGCAACGAGCUGCAGUAGGCAGUCCCUUCAGGCCUCUCCCUCGAUGGAGGAGGCAACAGAGGAUUGAGCAUCA
# B10: chr4:133834700:133834701:-_ENSMUSG00000050890_ENSMUST00000105876|mus_hu|FALSE|FALSE (ssRNA)
# RNA: GGGAGUUCUACAGUCCGACGAUCGUAAAAAUCUGUUCCACAUGCUGUGGAAAGGAAACACUUGUUUACACUGACAGGUUCUUCUGGGUUCUGCCCAGAGGCUGAACAAACUUUACUUAGACCAAAAUCAGCCACUUUGAGGGUCAACAGAGGAUUGAGCAUCA
# B11: 48490846_48490966_941_3pUTR_ENSMUSG00000039347_ENSMUST00000040361|mouse|control|control (ssRNA)
# RNA: GGGAGUUCUACAGUCCGACGAUCCACCUCCAGGAAUGUCACAUCUACAAGUGUCAGAGACUAAAUGGAUAUCAUUCACUUCAGAGCUGGAGGAGGCCUGUGACCCUGACCCAAUAUUUCAACACGGUGGAGACAGAGUUAAAACAACAGAGGAUUGAGCAUCA
# B12: chr4:57314706:57314707:+_ENSG00000128050_ENST00000264221|hu_mus|hu_hu_hu_mus_True|1_88 (ssRNA)
# RNA: GGGAGUUCUACAGUCCGACGAUCCAGAAUUUCAAAAAUAGCUUGUGUAGCAUGACUCAUGAUGUCCACUUCAGUCUGCCCUAUAACAAGGCCAGCAAAACAGAAUUUUGCAGCAAUGAGUUGCUCCUCAGACCACUGUGGGUCCAACAGAGGAUUGAGCAUCA
# B13: 70762012_70763264_1072_3pUTR_ENSG00000145734_ENST00000358731|human|control|control (ssRNA)
# RNA: GGGAGUUCUACAGUCCGACGAUCGUAGUUGUAGAACCGCGCUCAAAUAUGGGGUCAUUUUCUUCAACAACACAAGGGCCUUUUGUUCUUAAAACUUCUACAGUUAAACUUUCUUCAUCCAAAAUAAUGGAACCAUCUUCUGCCCAACAGAGGAUUGAGCAUCA
# B14: chr12:48362563:48362564:+_ENSG00000134291_ENST00000256686|hu_hu|hu_hu_hu_mus_False|58_68 (ssRNA)
# RNA: GGGAGUUCUACAGUCCGACGAUCUCCGUCAAGCCCUUCGAUAGACCCUUGCGGGGGAAACUGUAAUAAUUCUAACUUUCUAAAAAAAAGAAACGCCAAAAACUUUCCAAAAAGCGGGGGUGGGGUGAGGCGGGAGGGGGAGGUCAACAGAGGAUUGAGCAUCA
# Molecular target: T1, UNK ZnF1-3 (human, UniProt Q9C0B0 31-174)
# T1 sequence: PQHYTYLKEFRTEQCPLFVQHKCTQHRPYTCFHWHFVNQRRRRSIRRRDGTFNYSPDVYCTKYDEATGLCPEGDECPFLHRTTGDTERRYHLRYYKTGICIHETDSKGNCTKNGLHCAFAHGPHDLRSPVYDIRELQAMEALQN
# Assay: nsRBNS (natural sequence RNA bind-n-seq); RBNS binding buffer (assumed for nsRBNS): 25 mM Tris pH 7.5, 150 mM KCl, 3 mM MgCl2, 0.01% Triton X-100, 500 ug/ml BSA, 20 U/ml SUPERase-In, 4 C; UNK is unkempt and MSI1 is Musashi-1; names of the RNAs are library labels; protein concentration not given here; high values mean tight binding
row,Binder,binding signal [enrichment R]
1,B1,1.03
2,B2,0.93
3,B3,0.992
4,B4,0.85
5,B5,1.13
6,B6,1.59
7,B7,1.6
8,B8,1.07
9,B9,2.68
10,B10,0.813
11,B11,1.54
12,B12,0.909
13,B13,1.24
14,B14,2.32
